# Reference: PubChem BioAssay AID2147 (National Center for Advancing Translational Sciences (NCATS), 2009)
# The whole screen tested about 230,000 compounds, of which about 3,600 (1.6%) were called active. The shares of active, inactive and inconclusive entries below differ from those in the screen. The call rests on the fitted dose curve; in most records, active means well fitted inhibition curve with a large enough effect (not every such curve was filed as active); inconclusive means small, poorly fitted or top-dose-only effect, or another doubt; inactive means no such curve, though single readings can be large or run the other way. Potencies of inconclusive entries are doubtful fits and often do not repeat. Where a SMILES comes first, the peptide text is derived from it. [ ]: non-standard residue; d: D form. NMeY = CN[C@@H](Cc1ccc(O)cc1)C(=O)O; NMeF = CN[C@@H](Cc1ccccc1)C(=O)O; 2Abz = Nc1ccccc1C(=O)O
# Target: Lysine-specific demethylase 4E (Homo sapiens) (UniProt B2RXH2)
# Experiment: qHTS Assay for Inhibitors of Human Jumonji Domain Containing 2E (JMJD2E)
# Conditions: JMJD2E catalytic domain, FDH-coupled NADH fluorescence (FDH is formaldehyde dehydrogenase); series mostly up to 57.1 µM; activity change, negative = inhibition: at the top concentration
# Further: nearly all actives have a fitted effect of over 50% in size.
# Potency means the concentration at half of the fitted maximal effect; tags describe the fitted curve by direction and shape.
# 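Wherever activity change, negative = inhibition is given: 0% = wells with enzyme and -100% = buffer wells without enzyme.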
# UniProt B2RXH2, sequence (B2RXH2 whole entry, looked up, the tested form may be a part): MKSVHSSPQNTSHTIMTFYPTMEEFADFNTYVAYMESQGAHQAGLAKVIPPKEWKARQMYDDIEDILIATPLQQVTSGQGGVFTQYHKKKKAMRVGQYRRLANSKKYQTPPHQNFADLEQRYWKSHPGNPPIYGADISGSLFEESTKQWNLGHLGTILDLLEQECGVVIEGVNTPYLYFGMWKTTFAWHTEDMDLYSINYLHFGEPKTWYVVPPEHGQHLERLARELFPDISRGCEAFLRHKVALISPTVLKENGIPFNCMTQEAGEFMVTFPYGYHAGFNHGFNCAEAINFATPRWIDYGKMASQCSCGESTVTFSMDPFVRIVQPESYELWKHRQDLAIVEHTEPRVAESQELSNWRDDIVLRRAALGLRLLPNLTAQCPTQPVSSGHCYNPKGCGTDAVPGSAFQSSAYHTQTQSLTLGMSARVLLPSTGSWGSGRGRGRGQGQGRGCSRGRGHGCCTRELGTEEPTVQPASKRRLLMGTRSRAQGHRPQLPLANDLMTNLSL
Structure (SMILES),Potency,"activity change, negative = inhibition"
COC(=O)c1cc(OC)c(OC)cc1NC(=O)c1c(-c2ccccc2)noc1C,"inconclusive: 35.5 µM [inhibitor, single point]",
CC(C)(C)C(=O)N1N=C(c2cccc(NS(C)(=O)=O)c2)CC1c1cccs1 (centres undefined),"inconclusive: 25.1 µM [inhibitor, single point]",
COc1ccc(-c2nc3ccccn3c2C=O)cc1,"inconclusive: 25.1 µM [inhibitor, single point]",
C#CCSC1=C(C#N)C(c2cccs2)C(C(=O)OCC)=C(C)N1 (centres undefined),"inconclusive: 11.2 µM [inhibitor, partial curve]",
CCc1n[nH]c(=S)n1/N=C/c1c(C)nn(-c2ccccc2)c1Cl,,inactive: -4.27%
CC1(C)CC(=O)C(C=NCCN2CCN(C(=O)CC3CCCC3)CC2)=C(O)C1,,inactive: -2%
CCOC(=O)c1cnc2c(OC)cccc2c1NCc1cccnc1,"inconclusive: 35.5 µM [inhibitor, single point]",
Cc1ccc(N2C(=O)c3ccccc3NC2C(C)Cc2ccc3c(c2)OCO3)cc1 (centres undefined),"inconclusive: 28.2 µM [inhibitor, partial curve]",
CCN(CC)c1ccc(/C=N/Nc2nn[nH]n2)cc1,"inconclusive: 31.6 µM [inhibitor, partial curve]",
CCCn1ncc(OC)c(Cl)c1=O,,inactive: 2.39%
CC1(C)Cc2c(c(N3CCOCC3)nc3snc(Br)c23)CO1,,inactive: -5.03%
CCCCCCCCCC[n+]1cccc2c3ccccc3ccc21,"inconclusive: 31.6 µM [inhibitor, partial curve]",
COC(=O)C1=CN(C2CCCCC2)C=C(C(=O)OC)C1c1ccc2c(c1)OCO2,"inconclusive: 28.2 µM [inhibitor, partial curve]",
CC(C)C[C@@H]1NC(=O)[C@H](Cc2ccccc2)N(C)C(=O)[C@H](C)NC(=O)c2ccccc2NC(=O)[C@H](Cc2ccc(O)cc2)N(C)C1=O (cyclo([2Abz]A[NMeF]L[NMeY])),"inconclusive: 28.2 µM [inhibitor, single point]",
O=C(CNC(=O)c1ccccc1)N/N=C/c1cc(Br)ccc1O,active: 28.2 µM,
COCCNc1oc(-c2ccc(C)cc2)nc1C#N,"inconclusive: 28.2 µM [inhibitor, partial curve]",
CC1=CC(=O)c2c(O)ccc(O)c2C1=O,"inconclusive: 25.1 µM [inhibitor, partial curve]",
Nc1cc(Cl)ccc1N1CCCCCC1,"inconclusive: 15.8 µM [inhibitor, partial curve, poor fit]",
CCn1ncc(C2=NOC(C(=O)NCc3ccc(OC)cc3)C2)c1C (centres undefined),,inactive: 4.2%
